Assay results: PubChem BioAssay AID1625 (Sanford-Burnham Center for Chemical Genomics, 2009)
Where “and” joins values, the source holds several entries; their conditions need not be identical. Equal values may be shown once. Some of the results follow. Shown are side measurements of this screen, not its main read-out; they come without a call. The list favours compounds with an active or inconclusive main result.

Assay: up-regulation of insulin promoter-GFP reporter – imaging, high-content screening, mouse beta cells (AID 1625);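 also: total cells summed across four imaged fields per well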
Conditions: MIN6 insulin promoter-GFP reporter, measured here: cytotoxicity, nuclei count, at 5 µM
In the case of `O=C(NCc1cccs1)c1ccc(N2CCCCC2)nc1`, the cell count is reported as 1120 cells.
With `CCN(CC)C(=O)c1sc2nc(-c3cccs3)cc(-c3cccs3)c2c1N` the cell count was 1360 cells.
`CN1/C(=C\C=C2/SC(=S)NC2=O)C(C)(C)c2ccccc21` showed a cell count of 704 cells.
In the case of `CCOC(=O)C1CCCN(c2nc(C)nc3c2oc2ccccc23)C1` (centres undefined), the cell count is reported as 435 cells.
With `CCCn1c(SCC(=O)NC2CCCCC2)nnc1-c1ccncc1` the cell count was 1170 cells.
`Cc1cccc[n+]1CC(=O)/C=C1\N(C)c2ccccc2C1(C)C` showed a cell count of 486 cells.
For `CC1CCCC(NC(=O)C2CCCN2S(=O)(=O)c2cccc3nsnc23)C1C` (centres undefined), the cell count was 332 cells.
Compound `CN(C)c1ccc(/C=C/c2ccc3ccccc3[n+]2C)cc1` has a cell count of 363 cells.
Work on `O=C1c2cccc3c(N4CCCCC4)ccc(c23)C(=O)N1c1ccc(O)cc1` yielded a cell count of 1140 cells.
`CCN(CC)c1ccc(/C=N/NC(=O)c2cccc(S(=O)(=O)Nc3ccccc3OC)c2)c(O)c1` gave a cell count of 477 cells.
For `CCCN1C(=O)/C(=C/c2c(NCCCOCC)nc3c(C)cccn3c2=O)SC1=S`, the cell count was 983 cells.
For `CCOC(=O)CC1C(=O)NCCN1c1nc2c(C)cccn2c(=O)c1/C=C1\SC(=S)N(CC(C)C)C1=O` (centres undefined), the cell count was 956 cells.
For `COc1ccc(-c2cn(-c3ccc(Cl)cc3)c3[n+]2CCCCC3)cc1`, the cell count was 242 cells.
With `CCOC(=O)C1C(=O)C=C(/C=C/c2ccc(N(C)C)cc2)CC1c1ccccc1` (centres undefined) the cell count was 1480 cells.
Compound `CCc1nc(SCC(=O)N2CCOCC2)c2c(=O)n(C)c(=O)n(C)c2n1` has a cell count of 493 cells.
With `CCN(CC)c1ccc2c(c1)CCCN2` the cell count was 340 cells.
Work on `Cc1ccc(-n2c(-c3ccccc3)c[n+]3c2CCC3)cc1` yielded a cell count of 475 cells.
With `Cc1cc(C)c(NC(=O)c2ccc(S(=O)(=O)N3CCOCC3)cc2)c(C)c1` the cell count was 355 cells.
`CCCOc1ccc(C(=O)C(CCC(CNCC)C(=O)c2ccc(OCCC)cc2)CNCC)cc1` (centres undefined) showed a cell count of 155 cells.
`Cc1c(C(C)C)c(=O)n(-c2ccc(S(=O)(=O)NC3CCCCC3)cc2)n1C` gave a cell count of 498 cells.
Work on `CCn1c(C)nc2cc(C(=O)OC(C(F)(F)C(F)F)C(F)(F)C(F)F)ccc21` yielded a cell count of 431 cells.
For `CC(=O)c1ccc2cccc3c2c1N=CN3C`, the cell count was 1530 cells.
For `CCCc1cc(-n2ccnc2)n2c(nc3ccccc32)c1C#N`, the cell count was 1900 cells.
`CCc1nnc(NC(=O)C(C)Sc2ccccc2)s1` (centres undefined) showed a cell count of 405 cells.
For `Fc1ccc(C2NCCn3cccc32)cc1` (centres undefined), the cell count was 1430 cells.
Work on `COc1ccc(OCc2n(CC(=O)OC3CC(C)CCC3C(C)C)c3ccccc3[n+]2C)cc1` (centres undefined) yielded a cell count of 408 cells.
`CCOC(=O)COc1cccc2c(=O)n(CC(=O)NCCc3ccc(OC)c(OC)c3)ccc12` showed a cell count of 1340 cells.
With `Cn1nc(-c2ccc(Cl)cc2)c2cc(C(=O)N3CCN(c4ccccn4)CC3)sc21` the cell count was 415 cells.
With `Cc1ccc(C2CC(C(F)(F)F)n3nc(C(=O)NCc4c(C)nn(C)c4C)c(Cl)c3N2)cc1` (centres undefined) the cell count was 289 cells.
Compound `Nc1ccc(-c2nc3nc(N)nc(N)c3nc2-c2ccc(N)cc2)cc1` has a cell count of 1330 cells.
`O=C(CNC(=O)c1ccc(F)cc1)N/N=C/c1cn[nH]c1-c1ccccc1` showed a cell count of 348 cells.
`Cn1c(=O)c(NC2CCCCC2)c2c3c(cccc31)C(=O)c1ccccc1-2` showed a cell count of 1220 cells.
Compound `CC(=O)Cc1cc(O)c2ccccc2c1OC(=O)c1ccc(Br)cc1` has a cell count of 1340 cells.
`CCOC(=O)c1c(NC(=O)CSc2nc3ccccc3s2)sc(C(C)=O)c1C` showed a cell count of 310 cells.
Work on `CC(=O)c1cccc(NC(=S)NCCC2=CCCCC2)c1` yielded a cell count of 397 cells.
Work on `O=Nc1c(O)n(Cc2ccc(Cl)cc2)c2ccccc12` yielded a cell count of 1360 cells.
With `CN(C)c1ccc(/C=C/c2cc[n+](C)cc2)cc1` the cell count was 494 cells.
With `Cc1cc(N2CCOCC2)nc(NCc2ccccc2)n1` the cell count was 454 cells.
In the case of `CNc1nc2cc([N+](=O)[O-])c([N+](=O)[O-])cc2nc1NC`, the cell count is reported as 413 cells.
In the case of `CC(C)C(=O)Nc1ccc(C(=O)N2CCCCCC2)cc1`, the cell count is reported as 381 cells.
Work on `Cc1ccc(N2C(=O)C3C(C(=O)c4ccccc4)=NN(c4ccccc4)C3C2=O)cc1` (centres undefined) yielded a cell count of 1480 cells.
In the case of `CCc1ccc(NC(=O)c2cc(C(C)C)on2)cc1`, the cell count is reported as 1410 cells.
Work on `CCOC(=O)N1CCN(C(=O)CSCc2ccccc2Cl)CC1` yielded a cell count of 424 cells.
Work on `CN(Cc1ccccc1)C1=CC(=[N+]2CCCCC2)CC(C)(C)C1` yielded a cell count of 227 cells.
With `N=c1c2c3c(sc2nc2n1CCCCC2)CCCCC3` the cell count was 488 cells.
`CN(C(=O)CSc1cc(C(=O)c2nccn2C)c2ccccc2n1)c1ccccc1` gave a cell count of 195 cells.
Work on `Cc1[nH]c2ccccc2c1CN1CCc2ccccc2C1` yielded a cell count of 445 cells.
For `Cc1ccc(/C=C/C(=O)Nc2ccc([N+](=O)[O-])cc2)o1`, the cell count was 385 cells.
Work on `O=[N+]([O-])c1cnc(Sc2ccncn2)s1` yielded a cell count of 390 cells.
Compound `COc1ccc(CN(CC2CCC(C(=O)O)CC2)C(=S)Nc2cccc(C)c2)cc1` (centres undefined) has a cell count of 1300 cells.
With `CCOC(=O)c1cc2sc(C)cc2n1CC(=O)Nc1cccc(C)c1C` the cell count was 314 cells.
`COCCN(CCOC)Cc1cc(=O)oc2cc3c(cc12)CCC3` showed a cell count of 1170 cells.
With `N#CC(C#N)=C1C=C2C=C(N3CCCCC3)CCC2CC1` (centres undefined) the cell count was 1280 cells.
With `Cc1c(Cl)cccc1NC(=S)NCc1ccc2c(c1)OCO2` the cell count was 381 cells.
With `O=C(/C=C/c1ccc(O)cc1)c1ccc(NC2=C(N3CCCCC3)C(=O)c3ccccc3C2=O)cc1` the cell count was 322 cells.
For `Cc1ccccc1NC(=O)/C=C/c1ccc([N+](=O)[O-])s1`, the cell count was 401 cells.
`O=C(C1CCC(CNS(=O)(=O)c2cccc3cccnc23)CC1)N1CCc2ccccc21` (centres undefined) gave a cell count of 221 cells.
`Cc1ccc(-n2nc(C)c(NC(=O)CCl)c2C)cc1C` gave a cell count of 451 cells.
In the case of `COc1ccccc1-c1n[nH]c2c1[C@H](C)CC[C@H]2C(C)C`, the cell count is reported as 224 cells.
With `c1ccc2c(c1)CSc1sccc1C2=C1CCNCC1` the cell count was 470 cells.
With `COc1ccc(NC2=Nc3ccccc3N3C2=Nc2c(c(C)nn2-c2ccc(C)cc2)C3c2cccnc2)cc1` (centres undefined) the cell count was 1010 cells.
In the case of `O=C(Sc1cccc2cccnc12)c1ccc(F)cc1`, the cell count is reported as 474 cells.
Work on `CCN(CC)CCCC(C)Nc1c2ccc(Cl)cc2nc2ccc(OC)cc12` (centres undefined) yielded a cell count of 750 cells.
For `Cc1nc2ccccc2n1-c1nc(-c2ccco2)cc(C(F)(F)F)n1`, the cell count was 326 cells.
`Cc1ccc(S(=O)(=O)Cc2ccc(C(=O)NCCCN3CCCC3=O)o2)cc1` gave a cell count of 269 cells.
Work on `CN1/C(=C\C=N\NC(=O)c2ccc(O)cc2)C(C)(C)c2ccccc21` yielded a cell count of 262 cells.
With `Cc1nc2c(-c3ccc(Cl)cc3)c(C)[nH]n2c(=O)c1Cc1ccccc1` the cell count was 489 cells.
With `CC(=O)Nc1sc(/C(C#N)=C\c2cccc(Cl)c2)nc1-c1ccc(C)cc1` the cell count was 1360 cells.
In the case of `CCCc1nnc(SCc2ccc(OCC)cc2)n1N`, the cell count is reported as 442 cells.
For `CCCCCc1ccc(OCCC[n+]2ccccc2)c(CCCCC)c1`, the cell count was 345 cells.
Work on `Cc1ccc(-c2c[n+](Cc3cccc(Cl)c3)c3n2CCC3)cc1` yielded a cell count of 467 cells.
`Cc1[nH]c2ccccc2c1Cc1nnc(SCC(N)=O)o1` gave a cell count of 1950 cells.
`Cc1nc2ccc(S(=O)(=O)NC(C(=O)Nc3nc4ccc(Cl)cc4s3)C(C)C)cc2s1` (centres undefined) showed a cell count of 311 cells.
With `CCCCOc1ncnc2c1[nH]c1ccc(F)cc12` the cell count was 340 cells.
Compound `CCCCCCCCCCCCCCCC[n+]1cccc2ccccc21` has a cell count of 479 cells.
In the case of `CCc1ccc(OCC(=O)N/N=C(\C)c2ccccc2OC(F)F)cc1`, the cell count is reported as 438 cells.
Work on `Cc1cc2cc(CN(CC3CCCO3)C(=S)Nc3ccccc3)c(=O)[nH]c2cc1C` (centres undefined) yielded a cell count of 371 cells.
With `COc1ccc(C)cc1NC(=O)CSc1nnc(COc2ccc(Cl)cc2)n1Cc1ccco1` the cell count was 279 cells.
In the case of `COc1ccc(NC(=O)/C(C#N)=C\c2ccc(N3CCOCC3)o2)cc1`, the cell count is reported as 1600 cells.
Compound `O=C(CSc1nnc(Cn2nnc3ccccc32)o1)N(Cc1ccc(F)cc1)c1ccccc1` has a cell count of 287 cells.
In the case of `Nc1c(C(=O)Nc2nc3ccccc3s2)sc2nc(-c3cccs3)ccc12`, the cell count is reported as 1140 cells.
Compound `CC(Sc1ccccc1)C(=O)NN=C1CCCCCC1` (centres undefined) has a cell count of 1310 cells.
Compound `CC(C)Cn1c(SCC(=O)N2CCc3ccccc3C2)nc2cc(Cl)ccc2c1=O` has a cell count of 265 cells.
In the case of `CC(C)Oc1ccccc1C1CC(=O)Nc2c1c(=O)n(C)c(=O)n2C` (centres undefined), the cell count is reported as 402 cells.
In the case of `CCOC(=O)N1CCC(NC(=O)CS(=O)(=O)Cc2nc(-c3ccc(C)cc3)oc2C)CC1`, the cell count is reported as 348 cells.
`CC(=O)c1cccc(NC(=O)/C=C/c2ccc([N+](=O)[O-])s2)c1` gave a cell count of 497 cells.
In the case of `CN(C)c1ccc(/C=C2\CCC/C(=C\c3ccccc3)C2=O)cc1`, the cell count is reported as 1420 cells.
Compound `COc1cccc2sc(Nc3nc(-c4ccccn4)cs3)nc12` has a cell count of 483 cells.
Work on `CCCCn1c(=O)[nH]c2nc3cc(N)ccc3nc2c1=O` yielded a cell count of 1560 cells.
In the case of `Cc1cc(C)cc(N=Cc2[nH]c3ccc(Br)c(Cl)c3c2O)c1`, the cell count is reported as 1370 cells.
`Cc1ccc(SCC2(O)CCN(S(=O)(=O)c3ccc(Cl)cc3)CC2)cc1` showed a cell count of 464 cells.
Work on `C=CCN(CC=C)S(=O)(=O)c1ccc(NC(=S)NC(=O)c2ccc(-c3ccccc3)cc2)cc1` yielded a cell count of 445 cells.
With `CCN1/C(=C/c2ccc3cc(C)ccc3[n+]2CC)Sc2cc(C)c(C)cc21` the cell count was 301 cells.
`CC(C)=C1C2CCC1C1C(=O)N(c3nc(-c4ccc(F)cc4)c(C)s3)C(=O)C21` (centres undefined) gave a cell count of 470 cells.
For `Cc1ccc(C(=O)C[n+]2cc(-c3ccccc3)n3c2CCCCC3)cc1`, the cell count was 320 cells and 271 cells.
`CC(C)(CNS(=O)(=O)c1ccc(Cl)cc1)N1CCCCC1` gave a cell count of 1010 cells.
With `O=[N+]([O-])c1ccc(N/N=C/c2sc(N3CCOCC3)nc2-c2ccccc2)c(S(=O)(=O)Nc2ccccc2Cl)c1` the cell count was 931 cells.
In the case of `O=C(c1ccc2c(c1)OCO2)N1CCCC1`, the cell count is reported as 1490 cells.
In the case of `CCOC(=O)c1c(-c2ccc(C)cc2)csc1NC(=O)/C(C#N)=C/c1ccc(O)c(OC)c1`, the cell count is reported as 707 cells.
Work on `COc1ccc(-n2c(C)cc(C(=O)CSc3nnc(-c4cccs4)o3)c2C)cc1` yielded a cell count of 378 cells.
Compound `CC[C@]1(O)CC2CN(CCc3c([nH]c4ccccc34)[C@@](C(=O)OC)(c3cc4c(cc3OC)N(C=O)[C@H]3[C@@](O)(C(=O)OC)[C@H](OC(C)=O)[C@]5(CC)C=CCN6CC[C@]43[C@@H]65)C2)C1` (some centres undefined) has a cell count of 349 cells.
For `Cc1nn(-c2ccccc2)c(C)c1C(=O)OCC(=O)c1c(N)n(CC(C)C)c(=O)n(C)c1=O`, the cell count was 312 cells.
`O=C(N/N=C/c1cc2c3c(c1O)CCCN3CCC2)c1ccccc1O` gave a cell count of 453 cells.
`O=C(NCc1ccco1)C1CCN(S(=O)(=O)N2CCC3(CC2)OCCO3)CC1` showed a cell count of 430 cells.
